# This is one part of the list.
# Columns and labels:
# Experiment in all cases: glycan array binding signal (z-score within array); higher = stronger binding
# Details in all cases: glycan notation: IUPAC condensed, linker removed
# [1] = molecular target: Man(a1-2)Man(a1-3)[Man(a1-2)Man(a1-6)]Man(a1-6)[Man(a1-2)Man(a1-2)Man(a1-3)]Man
# Method in brief: (§1)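 Columns mapping to the same glycan were averaged after glycan names were converted to IUPAC-condensed notation. The data come from 3228 arrays in the Consortium for Functional Glycomics database, limited to those with an available protein sequence. Binding is reported as a within-array Z-score averaged across arrays of one protein sequence and across linkers.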
# [2] = molecular target: Man(a1-2)Man(a1-3)[Man(a1-2)Man(a1-6)]Man(a1-6)[Man(a1-2)Man(a1-2)Man(a1-3)]Man(b1-4)GlcNAc(b1-4)GlcNAc
# Method in brief: as §1
# [3] = molecular target: Man(a1-2)Man(a1-3)[Man(a1-6)]Man(a1-6)[Man(a1-2)Man(a1-3)]Man(b1-4)GlcNAc(b1-4)GlcNAc
# Method in brief: as §1
# [4] = molecular target: Man(a1-2)Man(a1-6)[Man(a1-3)]Man(a1-6)[Man(a1-2)Man(a1-2)Man(a1-3)]Man
# Method in brief: as §1
# [5] = molecular target: Man(a1-2)Man(a1-6)[Man(a1-3)]Man(a1-6)[Man(a1-2)Man(a1-2)Man(a1-3)]Man(b1-4)GlcNAc(b1-4)GlcNAc
# Method in brief: as §1
# [6] = molecular target: Man(a1-3)[Man(a1-6)]Man
# Method in brief: as §1
# [7] = molecular target: Man(a1-3)[Man(a1-6)]Man(a1-6)[Man(a1-2)Man(a1-3)]Man(b1-4)GlcNAc(b1-4)GlcNAc
# Method in brief: as §1
# [8] = molecular target: Man(a1-3)[Man(a1-6)]Man(a1-6)[Man(a1-3)]Man
# Method in brief: as §1
# [9] = molecular target: Man(a1-3)[Man(a1-6)]Man(a1-6)[Man(a1-3)]Man(b1-4)GlcNAc(b1-4)GlcNAc
# Method in brief: as §1
# [10] = molecular target: Man(a1-3)[Man(a1-6)]Man(b1-4)GlcNAc(b1-4)GlcNAc
# Method in brief: as §1
# [11] = molecular target: Man(a1-3)[Man(a1-6)]Man(b1-4)GlcNAc(b1-4)[Fuc(a1-6)]GlcNAc
# Method in brief: as §1
# [12] = molecular target: Man(a1-6)Man
# Method in brief: as §1
# [13] = molecular target: Man(b1-4)GlcNAc
# Method in brief: as §1
# [14] = molecular target: MurNAc(b1-4)GlcNAc
# Method in brief: as §1
# [15] = molecular target: Neu5Ac(a2-3)Gal
# Method in brief: as §1
# [16] = molecular target: Neu5Ac(a2-3)Gal(b1-3)GalNAc
# Method in brief: as §1
# [17] = molecular target: Neu5Ac(a2-3)Gal(b1-3)GalNAc(b1-3)Gal(a1-4)Gal(b1-4)Glc
# Method in brief: as §1
# [18] = molecular target: Neu5Ac(a2-3)Gal(b1-3)GalNAc(b1-4)[Neu5Ac(a2-3)]Gal(b1-4)Glc
# Method in brief: as §1
# [19] = molecular target: Neu5Ac(a2-3)Gal(b1-3)GalNAc(b1-4)[Neu5Ac(a2-8)Neu5Ac(a2-3)]Gal(b1-4)Glc
# Method in brief: as §1
# [20] = molecular target: Neu5Ac(a2-3)Gal(b1-3)GalNAc6S
# Method in brief: as §1
# [21] = molecular target: Neu5Ac(a2-3)Gal(b1-3)GlcNAc
# Method in brief: as §1
# [22] = molecular target: Neu5Ac(a2-3)Gal(b1-3)GlcNAc(b1-2)Man
# Method in brief: as §1
# [23] = molecular target: Neu5Ac(a2-3)Gal(b1-3)GlcNAc(b1-2)Man(a1-3)[GlcNAc(b1-4)][Neu5Ac(a2-3)Gal(b1-3)GlcNAc(b1-2)Man(a1-6)]Man(b1-4)GlcNAc(b1-4)GlcNAc
# Method in brief: as §1
# [24] = molecular target: Neu5Ac(a2-3)Gal(b1-3)GlcNAc(b1-2)Man(a1-3)[Neu5Ac(a2-3)Gal(b1-3)GlcNAc(b1-2)Man(a1-6)]Man(b1-4)GlcNAc(b1-4)GlcNAc
# Method in brief: as §1
# [25] = molecular target: Neu5Ac(a2-3)Gal(b1-3)GlcNAc(b1-2)[Neu5Ac(a2-3)Gal(b1-3)GlcNAc(b1-4)]Man(a1-6)[Neu5Ac(a2-3)Gal(b1-3)GlcNAc(b1-2)Man(a1-3)]Man(b1-4)GlcNAc(b1-4)GlcNAc
# Method in brief: as §1
# [26] = molecular target: Neu5Ac(a2-3)Gal(b1-3)GlcNAc(b1-3)Gal(b1-3)GlcNAc
# Method in brief: as §1
# [27] = molecular target: Neu5Ac(a2-3)Gal(b1-3)GlcNAc(b1-3)Gal(b1-4)GlcNAc
# Method in brief: as §1
# [28] = molecular target: Neu5Ac(a2-3)Gal(b1-3)GlcNAc(b1-3)GalNAc
# Method in brief: as §1
# [29] = molecular target: Neu5Ac(a2-3)Gal(b1-3)GlcNAc(b1-4)Gal(b1-4)Glc
# Method in brief: as §1
# [30] = molecular target: Neu5Ac(a2-3)Gal(b1-3)GlcNAc(b1-6)GalNAc
# Method in brief: as §1
# [31] = molecular target: Neu5Ac(a2-3)Gal(b1-3)GlcNAc6S
# Method in brief: as §1
# [32] = molecular target: Neu5Ac(a2-3)Gal(b1-3)[Fuc(a1-4)]GlcNAc
# Method in brief: as §1
# [33] = molecular target: Neu5Ac(a2-3)Gal(b1-3)[Fuc(a1-4)]GlcNAc(b1-3)Gal(b1-3)[Fuc(a1-4)]GlcNAc
# Method in brief: as §1
# [34] = molecular target: Neu5Ac(a2-3)Gal(b1-3)[Fuc(a1-4)]GlcNAc(b1-3)Gal(b1-4)[Fuc(a1-3)]GlcNAc
# Method in brief: as §1
# [35] = molecular target: Neu5Ac(a2-3)Gal(b1-3)[GlcNAc(b1-6)]GalNAc
# Method in brief: as §1
# [36] = molecular target: Neu5Ac(a2-3)Gal(b1-3)[Neu5Ac(a2-6)]GalNAc
# Method in brief: as §1
# [37] = molecular target: Neu5Ac(a2-3)Gal(b1-3)[Neu5Ac(a2-6)]GlcNAc(b1-3)[Fuc(a1-3)[Gal(b1-4)]GlcNAc(b1-6)]Gal(b1-4)Glc
# Method in brief: as §1
binder,measurement,setting,value
FGFR2-Fc (protein) MVNVTDAISSGDDEDDTDGAEDFVSENSNNKRAPYWTNTEKMEKRLHAVPAANTVKFRCPAGGNPMPTMRWLKNGKEFKQEHRIGGYKVRNQHWSLIMESVVPSDKGNYTCVVENEYGSINHTYHLDVVERSPHRPILQAGLPANASTVVGGDVEFVCKVYSDAQPHIQWIKHVEKNGSKYGPDGLPYLKVLKHSGINSSNAEVLALFNVTEADAGEYICKVSNYIGQANQSAWLTVLPKQQAPGREKEITASPDYLETRPLEQKLISEEDLAANDILDYKDDDDKV,glycan array binding signal (z-score),[1],-0.185
same,glycan array binding signal (z-score),[2],0.398
same,glycan array binding signal (z-score),[3],-0.644
same,glycan array binding signal (z-score),[4],-0.648
same,glycan array binding signal (z-score),[5],-0.513
same,glycan array binding signal (z-score),[6],0.275
same,glycan array binding signal (z-score),[7],-0.061
same,glycan array binding signal (z-score),[8],0.011
same,glycan array binding signal (z-score),[9],-0.189
same,glycan array binding signal (z-score),[10],-0.406
same,glycan array binding signal (z-score),[11],-0.128
same,glycan array binding signal (z-score),[12],-0.346
same,glycan array binding signal (z-score),[13],0.038
same,glycan array binding signal (z-score),[14],0.08
same,glycan array binding signal (z-score),[15],-0.402
same,glycan array binding signal (z-score),[16],0.247
same,glycan array binding signal (z-score),[17],-0.394
same,glycan array binding signal (z-score),[18],-0.453
same,glycan array binding signal (z-score),[19],-0.349
same,glycan array binding signal (z-score),[20],-0.172
same,glycan array binding signal (z-score),[21],0.268
same,glycan array binding signal (z-score),[22],-0.383
same,glycan array binding signal (z-score),[23],0.046
same,glycan array binding signal (z-score),[24],-0.602
same,glycan array binding signal (z-score),[25],0.32
same,glycan array binding signal (z-score),[26],-0.428
same,glycan array binding signal (z-score),[27],0.422
same,glycan array binding signal (z-score),[28],-0.411
same,glycan array binding signal (z-score),[29],-0.36
same,glycan array binding signal (z-score),[30],-0.13
same,glycan array binding signal (z-score),[31],0.227
same,glycan array binding signal (z-score),[32],-0.042
same,glycan array binding signal (z-score),[33],-0.001
same,glycan array binding signal (z-score),[34],-0.139
same,glycan array binding signal (z-score),[35],-0.365
same,glycan array binding signal (z-score),[36],-0.447
same,glycan array binding signal (z-score),[37],0.595

# Reference: the supplement of paper PMC8728848
